Assay results taken from US9550741B2, “Benzoisothiazole compounds and methods of treating schizophrenia” (SHANGHAI INSTITUTE OF PHARMACEUTICAL INDUSTRY, priority 2013, dated 2017).
Where two headings read alike, the source gives them in different places.

Columns and labels:
[1] = target: 5-HT1A receptor (Homo sapiens (Human), UniProt P08908); assay: 5-HT1A receptor binding test; details: [3H]8-OH-DPAT, HEK-293 cells expressing 5-HT1A receptors
Experimental: Cells: HEK-293 cells stably expressing 5-HT1A receptors as obtained by gene recombination are cultured for 3-5 days in cell culture medium DMEM supplemented with 10% serum.
Competitive inhibition ratio of each compound at the concentration of 10 μmol/L to inhibit the binding of [^3H]8-OH-DPAT to 5-HT1A receptor is determined for primary screening.
The components are mixed to homogeneity, and then the above tubes are transferred to water bath at 30° C. (1 h), removed into ice bath immediately, and suction filtered on Harvest (with ice cold Tris eluate for 5 times).

[2] = target: D2 receptor (Homo sapiens (Human), UniProt P14416); assay: Dopamine D2 receptor binding test; details: [3H]Spiperone, D2 receptor expressed in HEK293 cells; read-out: Affinity of the compound to D2 receptor, Ki value
Text: This experiment utilizes the plasmid vector containing the gene of D2 receptor protein for transfecting HEK293 cells by calcium phosphate transfection method.
(§1) Beckman LS-6500 multifunction liquid scintillation counter.

[3] = target: human recombinant D3 receptor (Homo sapiens (Human), UniProt P35462); assay: Dopamine D3 receptor binding test; details: [3H]methyl-spiperone 0.3 nM, human recombinant D3 receptor in CHO cells; read-out: Affinity of the compound to D3 receptor, Ki value
Experimental: With [^3H]methyl-spiperone (0.3 nM) as the ligand and (+)-butaclamol (10 LM) for determining non-specific binding, binding tests are carried out on human recombinant D3 receptor (expressed in CHO cells).

[4] = target: 5-HT2A receptor (Homo sapiens (Human), UniProt P28223); assay: 5-HT2A receptor binding test
Text: as §1

[5] = read-out: Affinity of the compound to 5-HT1A receptor, Ki value
[6] = read-out: Affinity of the compound to 5-HT2A receptor, Ki value, [3H]-Ketanserin, 5-HT2A receptor expressed in HEK293 cells
[7] = read-out: Affinity of the compound to 5-HT2A receptor, Ki value

Chain of UniProt P14416 (P14416 whole entry): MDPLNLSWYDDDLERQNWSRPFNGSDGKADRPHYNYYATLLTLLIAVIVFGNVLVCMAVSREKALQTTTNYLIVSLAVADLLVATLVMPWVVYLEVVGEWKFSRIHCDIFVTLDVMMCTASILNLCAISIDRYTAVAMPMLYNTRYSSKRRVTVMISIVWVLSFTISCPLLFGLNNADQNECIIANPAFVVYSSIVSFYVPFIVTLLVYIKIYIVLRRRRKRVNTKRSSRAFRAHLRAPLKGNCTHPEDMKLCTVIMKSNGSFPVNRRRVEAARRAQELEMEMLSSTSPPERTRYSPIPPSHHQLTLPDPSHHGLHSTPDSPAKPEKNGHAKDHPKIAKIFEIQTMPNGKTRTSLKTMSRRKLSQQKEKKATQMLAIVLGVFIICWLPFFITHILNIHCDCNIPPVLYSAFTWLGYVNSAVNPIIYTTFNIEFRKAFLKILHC
Chain of UniProt P08908 (P08908 whole entry): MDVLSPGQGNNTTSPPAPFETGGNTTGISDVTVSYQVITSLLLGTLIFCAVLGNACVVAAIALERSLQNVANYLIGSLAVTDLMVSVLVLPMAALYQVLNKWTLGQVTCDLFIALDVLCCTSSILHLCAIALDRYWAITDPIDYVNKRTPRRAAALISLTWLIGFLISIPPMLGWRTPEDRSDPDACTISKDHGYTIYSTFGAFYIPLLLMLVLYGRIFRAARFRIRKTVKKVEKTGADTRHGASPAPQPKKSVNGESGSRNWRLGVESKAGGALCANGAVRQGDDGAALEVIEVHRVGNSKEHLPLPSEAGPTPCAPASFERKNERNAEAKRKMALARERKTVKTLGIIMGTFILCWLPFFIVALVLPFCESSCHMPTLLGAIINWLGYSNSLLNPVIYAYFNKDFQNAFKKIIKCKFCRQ
Chain of UniProt P35462 (P35462 whole entry): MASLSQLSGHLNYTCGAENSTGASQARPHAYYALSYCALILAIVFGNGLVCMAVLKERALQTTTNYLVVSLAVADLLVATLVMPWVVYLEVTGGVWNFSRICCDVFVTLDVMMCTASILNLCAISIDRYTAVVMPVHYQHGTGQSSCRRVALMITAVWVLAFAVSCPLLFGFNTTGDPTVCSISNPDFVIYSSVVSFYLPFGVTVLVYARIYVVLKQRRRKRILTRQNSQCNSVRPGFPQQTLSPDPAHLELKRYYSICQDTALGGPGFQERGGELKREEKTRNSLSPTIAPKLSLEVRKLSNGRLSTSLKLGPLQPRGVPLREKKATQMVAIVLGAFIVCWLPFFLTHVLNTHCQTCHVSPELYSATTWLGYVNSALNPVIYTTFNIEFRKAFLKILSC
Chain of UniProt P28223 (P28223 whole entry): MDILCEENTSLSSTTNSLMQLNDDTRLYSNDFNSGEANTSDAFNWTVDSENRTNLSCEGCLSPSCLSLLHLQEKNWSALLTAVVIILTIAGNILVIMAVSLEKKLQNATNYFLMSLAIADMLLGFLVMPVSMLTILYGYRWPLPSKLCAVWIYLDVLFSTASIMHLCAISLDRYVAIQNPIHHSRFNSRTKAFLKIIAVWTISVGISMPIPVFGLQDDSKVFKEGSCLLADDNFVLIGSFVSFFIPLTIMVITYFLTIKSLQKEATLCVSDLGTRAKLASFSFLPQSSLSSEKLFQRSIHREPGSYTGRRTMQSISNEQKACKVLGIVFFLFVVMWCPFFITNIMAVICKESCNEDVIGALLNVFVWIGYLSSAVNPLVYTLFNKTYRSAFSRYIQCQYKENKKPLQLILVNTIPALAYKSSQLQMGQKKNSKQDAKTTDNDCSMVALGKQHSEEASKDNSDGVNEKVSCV

Row | Structure (SMILES) | Ki [1, 5] | Ki [2] | Ki [3] | Ki [4, 6] | Ki [4, 7] | Ki [1] | Ki ([4]; [3H]-Ketanserin, 5-HT2A receptor expressed in HEK293 cells)
1 | O=C(N[C@H]1CC[C@H](CCN2CCN(c3nsc4ccccc34)CC2)CC1)c1cccs1 [Compound I-2, trans-N-(4-(2-(4-(benzo[d]isothiazol-3-yl)piperazin-1-yl)ethyl)cyclohexyl)thienyl-2-carboxamide] | 1.1 nM | 0.19 nM | 0.056 nM | 0.15 nM | – | – | –
2 | O=C(N[C@H]1CC[C@H](CCN2CCN(c3nsc4ccccc34)CC2)CC1)c1ccc[nH]1 [Compound I-3, trans-N-(4-(2-(4-(benzo[d]isothiazol-3-yl)piperazin-1-yl)ethyl)cyclohexyl)-1H-pyrrolyl-2-carboxamide] | 0.52 nM | 0.21 nM | 0.31 nM | – | 0.29 nM | – | –
3 | O=C(N[C@H]1CC[C@H](CCN2CCN(c3nsc4ccccc34)CC2)CC1)c1cc2ccccc2o1 [Compound I-5, trans-N-(4-(2-(4-(benzo[d]isothiazol-3-yl)piperazin-1-yl)ethyl)cyclohexyl)benzofuryl-2-carboxamide] | 8.96 nM | 0.32 nM | 0.078 nM | 0.86 nM | – | – | –
4 | N#Cc1ccc(C(=O)N[C@H]2CC[C@H](CCN3CCN(c4nsc5ccccc45)CC3)CC2)o1 [Compound I-7, trans-N-(4-(2-(4-(benzo[d]isothiazol-3-yl)piperazin-1-yl)ethyl)cyclohexyl)-5-cyano-furyl-2-carboxamide] | 4.01 nM | 4.65 nM | 3.21 nM | 1.03 nM | – | – | –
5 | CC(C)(C)c1ccoc1C(=O)N[C@H]1CC[C@H](CCN2CCN(c3nsc4ccccc34)CC2)CC1 [Compound I-8, trans-N-(4-(2-(4-(benzo[d]isothiazol-3-yl)piperazin-1-yl)ethyl)cyclohexyl)-3-tert-butyl furyl-2-carboxamide] | 10.2 nM | 18.7 nM | 2.78 nM | – | 2.55 nM | – | –
6 | CC(=O)c1ccc(C(=O)N[C@H]2CC[C@H](CCN3CCN(c4nsc5ccccc45)CC3)CC2)o1 [Compound I-10, trans 5-acetyl-N-(4-(2-(4-(benzo[d]isothiazol-3-yl)piperazin-1-yl)ethyl)cyclohexyl)furyl-2-carboxamide] | 5.19 nM | 5.04 nM | 6.98 nM | – | 3.79 nM | – | –
7 | O=C(N[C@H]1CC[C@H](CCN2CCN(c3nsc4ccccc34)CC2)CC1)c1sccc1Br [Compound I-12, trans-N-(4-(2-(4-(benzo[d]isothiazol-3-yl)piperazin-1-yl)ethyl)cyclohexyl)-3-bromothienyl-2-carboxamide] | 3.62 nM | 3.15 nM | 1.02 nM | 2.89 nM | – | – | –
8 | COc1ccc2oc(C(=O)N[C@H]3CC[C@H](CCN4CCN(c5nsc6ccccc56)CC4)CC3)cc2c1 [Compound I-16, trans-N-(4-(2-(4-(benzo[d]isothiazol-3-yl)piperazin-1-yl)ethyl)cyclohexyl)-5-methoxylbenzofuryl-2-carboxamide] | 6.2 nM | 1.05 nM | 1.87 nM | – | 1.12 nM | – | –
9 | O=C(Cc1cccs1)N[C@H]1CC[C@H](CCN2CCN(c3nsc4ccccc34)CC2)CC1 [Compound I-17, trans-N-(4-(2-(4-(benzo[d]isothiazol-3-yl)piperazin-1-yl)ethyl)cyclohexyl)-2-(thien-2-yl)acetamide] | 0.98 nM | 0.27 nM | 0.1 nM | 1.02 nM | – | – | –
10 | O=C(Cc1coc2ccccc12)N[C@H]1CC[C@H](CCN2CCN(c3nsc4ccccc34)CC2)CC1 [Compound I-18, trans-N-(4-(2-(4-(benzo[d]isothiazol-3-yl)piperazin-1-yl)ethyl)cyclohexyl)-2-(benzofuran-3-yl)acetamide] | 7.55 nM | 0.23 nM | 0.18 nM | 1.87 nM | – | – | –
11 | O=C(N[C@H]1CC[C@@H](CCN2CCN(c3nsc4ccccc34)CC2)CC1)c1ccco1 [Compound I-19, cis-N-(4-(2-(4-(benzo[d]isothiazol-3-yl)piperazin-1-yl)ethyl)cyclohexyl)furyl-2-carboxamide] | 1.37 nM | 0.82 nM | 0.25 nM | 0.98 nM | – | – | –
12 | O=C(N[C@H]1CC[C@@H](CCN2CCN(c3nsc4ccccc34)CC2)CC1)c1cccs1 [Compound I-20, cis-N-(4-(2-(4-(benzo[d]isothiazol-3-yl)piperazin-1-yl)ethyl)cyclohexyl)thienyl-2-carboxamide] | 3.06 nM | 1.2 nM | 0.19 nM | 0.57 nM | – | – | –
13 | O=C(N[C@H]1CC[C@@H](CCN2CCN(c3nsc4ccccc34)CC2)CC1)c1ccc[nH]1 [Compound I-21, cis-N-(4-(2-(4-(benzo[d]isothiazol-3-yl)piperazin-1-yl)ethyl)cyclohexyl)-1H-pyrrolyl-2-carboxamide] | 3.78 nM | 2.96 nM | 0.84 nM | – | 0.81 nM | – | –
14 | O=C(N[C@H]1CC[C@@H](CCN2CCN(c3nsc4ccccc34)CC2)CC1)c1cc2ccccc2o1 [Compound I-23, cis-N-(4-(2-(4-(benzo[d]isothiazol-3-yl)piperazin-1-yl)ethyl)cyclohexyl)benzofuryl-2-carboxamide] | 5.48 nM | 1.73 nM | 1.04 nM | 1.78 nM | – | – | –
15 | O=C(N[C@H]1CC[C@@H](CCN2CCN(c3nsc4ccccc34)CC2)CC1)c1cc2ccccc2s1 [Compound I-24, cis-N-(4-(2-(4-(benzo[d]isothiazol-3-yl)piperazin-1-yl)ethyl)cyclohexyl)benzo[b]thienyl-2-carboxamide] | – | 10.8 nM | – | – | 2 nM | – | –
16 | O=S(=O)(N[C@H]1CC[C@H](CCN2CCN(c3nsc4ccccc34)CC2)CC1)c1cc[nH]c1 [II-2, trans-N-(4-(2-(4-(benzo[d]isothiazol-3-yl)piperazin-1-yl)ethyl)cyclohexyl)-1H-pyrrolyl-3-sulfamide] | 7.58 nM | 3.07 nM | 0.57 nM | – | 1.06 nM | – | –
17 | O=S(=O)(N[C@H]1CC[C@H](CCN2CCN(c3nsc4ccccc34)CC2)CC1)c1cc2ccccc2s1 [II-4, trans-N-(4-(2-(4-(benzo[d]isothiazol-3-yl)piperazin-1-yl)ethyl)cyclohexyl)benzo[b]thienyl-2-sulfamide] | 5.79 nM | 1.69 nM | 1.03 nM | 0.88 nM | – | – | –
18 | O=S(=O)(N[C@H]1CC[C@H](CCN2CCN(c3nsc4ccccc34)CC2)CC1)c1c[nH]c2ccccc12 [II-6, trans-N-(4-(2-(4-(benzo[d]isothiazol-3-yl)piperazin-1-yl)ethyl)cyclohexyl)-1H-indolyl-3-sulfamide] | 17.1 nM | 3.62 nM | 2.76 nM | 1.47 nM | – | – | –
19 | N#Cc1ccc(S(=O)(=O)N[C@H]2CC[C@H](CCN3CCN(c4nsc5ccccc45)CC3)CC2)o1 [II-7, trans-N-(4-(2-(4-(benzo[d]isothiazol-3-yl)piperazin-1-yl)ethyl)cyclohexyl)-5-cyanofuryl-2-sulfamide] | – | 8.54 nM | 8.19 nM | – | – | 6.08 nM | 2.1 nM
20 | Cc1ccc(S(=O)(=O)N[C@H]2CC[C@H](CCN3CCN(c4nsc5ccccc45)CC3)CC2)o1 [II-9, trans-N-(4-(2-(4-(benzo[d]isothiazol-3-yl)piperazin-1-yl)ethyl)cyclohexyl)-5-methylfuryl-2-sulfamide] | 2.1 nM | 7.38 nM | 1.73 nM | – | 2.01 nM | – | –
21 | CC(C)(C)c1ccc(S(=O)(=O)N[C@H]2CC[C@H](CCN3CCN(c4nsc5ccccc45)CC3)CC2)s1 [II-10, trans-N-(4-(2-(4-(benzo[d]isothiazol-3-yl)piperazin-1-yl)ethyl)cyclohexyl)-5-tert-butylthienyl-2-sulfamide] | – | 17.1 nM | – | 5.58 nM | – | – | –
22 | O=S(=O)(N[C@H]1CC[C@H](CCN2CCN(c3nsc4ccccc34)CC2)CC1)c1cc2cc(Cl)ccc2s1 [II-11, trans-N-(4-(2-(4-(benzo[d]isothiazol-3-yl)piperazin-1-yl)ethyl)cyclohexyl)-5-chlorobenzo[b]thienyl-2-sulfamide] | 18.4 nM | 9.76 nM | 3.6 nM | 3.39 nM | – | – | –
23 | O=S(=O)(N[C@H]1CC[C@@H](CCN2CCN(c3nsc4ccccc34)CC2)CC1)c1cccs1 [II-16, cis-N-(4-(2-(4-(benzo[d]isothiazol-3-yl)piperazin-1-yl)ethyl)cyclohexyl)thienyl-2-sulfamide] | 4.48 nM | 1.75 nM | 0.23 nM | – | – | – | –
24 | O=S(=O)(N[C@H]1CC[C@@H](CCN2CCN(c3nsc4ccccc34)CC2)CC1)c1cc2ccccc2o1 [II-20, cis-N-(4-(2-(4-(benzo[d]isothiazol-3-yl)piperazin-1-yl)ethyl)cyclohexyl)benzofuryl-2-sulfamide] | 5.19 nM | 6.4 nM | 2.01 nM | – | – | – | –
